The whole screen tested about 310,000 compounds, of which about 14,000 (4.5%) showed an effect of 50% or more. Effects have a minus sign here. The list shows a part of the results.
Target: human ether-à-go-go-related gene (hERG) potassium channel (human, UniProt Q12809)
Experiment: primary screen, population patch clamp on CHO cells stably expressing hERG
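Further: peak tail current of the secondary pulse compared with the same well before compound.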

human ether-à-go-go-related gene (hERG) potassium channel, sequence (Q12809 whole entry, looked up): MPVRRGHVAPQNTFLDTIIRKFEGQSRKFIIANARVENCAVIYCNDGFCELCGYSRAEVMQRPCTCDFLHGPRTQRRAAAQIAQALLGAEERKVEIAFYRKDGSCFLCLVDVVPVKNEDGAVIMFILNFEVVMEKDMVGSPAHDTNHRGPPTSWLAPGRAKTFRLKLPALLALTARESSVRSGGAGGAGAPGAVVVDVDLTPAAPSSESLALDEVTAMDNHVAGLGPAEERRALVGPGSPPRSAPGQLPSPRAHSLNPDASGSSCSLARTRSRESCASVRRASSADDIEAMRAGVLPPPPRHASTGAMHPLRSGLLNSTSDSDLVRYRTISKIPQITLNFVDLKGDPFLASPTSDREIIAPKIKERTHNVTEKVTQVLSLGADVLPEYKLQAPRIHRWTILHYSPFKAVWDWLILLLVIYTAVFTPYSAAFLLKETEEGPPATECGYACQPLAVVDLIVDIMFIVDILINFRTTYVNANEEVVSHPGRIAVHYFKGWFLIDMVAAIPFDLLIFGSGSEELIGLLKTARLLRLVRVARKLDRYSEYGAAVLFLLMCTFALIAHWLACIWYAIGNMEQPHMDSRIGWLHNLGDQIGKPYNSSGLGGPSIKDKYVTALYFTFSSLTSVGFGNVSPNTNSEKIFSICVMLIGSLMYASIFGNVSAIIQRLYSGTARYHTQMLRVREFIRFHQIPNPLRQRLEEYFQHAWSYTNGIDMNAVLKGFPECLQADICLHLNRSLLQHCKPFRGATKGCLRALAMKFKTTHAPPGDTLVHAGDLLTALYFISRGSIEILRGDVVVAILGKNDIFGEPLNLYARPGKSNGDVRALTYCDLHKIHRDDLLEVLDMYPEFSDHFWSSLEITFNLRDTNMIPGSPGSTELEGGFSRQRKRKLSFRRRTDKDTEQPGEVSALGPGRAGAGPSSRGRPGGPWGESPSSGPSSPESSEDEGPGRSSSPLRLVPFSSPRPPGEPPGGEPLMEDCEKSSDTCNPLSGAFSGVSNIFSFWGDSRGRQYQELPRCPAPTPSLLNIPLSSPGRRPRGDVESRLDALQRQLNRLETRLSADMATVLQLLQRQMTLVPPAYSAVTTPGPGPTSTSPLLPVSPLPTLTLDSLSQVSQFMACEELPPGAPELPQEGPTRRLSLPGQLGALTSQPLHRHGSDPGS

Row | SMILES | hERG current change (%, negative = inhibition) at 10uM
1 | C/C(CCc1ccccc1)=N\NC(=O)c1ccccc1 | 5.77%
2 | CSc1ccccc1OCc1cc(C(=O)NC2CCOC2)no1 (centres unmarked) | -1.92%
3 | Cc1ccc(OCCNC(=O)CCNS(=O)(=O)c2ccc(C)cc2)cc1 | -12.6%
4 | Cc1ccnc(NC(=O)CCC2COc3ccccc3O2)c1 (centres unmarked) | 7.3%
5 | CN(C)c1cccc2cccc(N(C)C)c12 | -3.13%
6 | COc1cccc(-c2cc(C(=O)N3CCN(C(=O)c4ccco4)CC3)on2)c1 | -13.9%
7 | Cc1ccc(C)c(N(CC(=O)NCCC2=CCCCC2)S(C)(=O)=O)c1 | -14.8%
8 | CC(=O)C1=C(O)C(=O)N(c2ccc(O)cc2)C1c1ccccc1Cl (centres unmarked) | 16.4%
9 | O=C(NC(=S)NNC(=O)c1ccccc1O)c1ccc(F)cc1 | 13.1%
10 | COc1nc(Oc2ccc(=O)n(C)n2)nc(N(C)C)n1 | 0.595%
11 | Cc1ccc(OCC(=O)N/N=C/c2cccnc2)cc1 | -9.84%
12 | CCCc1nc2ccc(NC(=O)c3ccco3)cc2c(=O)n1Cc1ccccc1Cl | 9.61%
13 | CC(=Nc1ccccc1C(F)(F)F)c1ccncc1 | 21.9%
14 | COc1ccc(N2CCN(C(CNC(C)=O)c3ccc4c(c3)OCO4)CC2)cc1 (centres unmarked) | -0.207%
15 | CCN(CC(=O)Nc1ccc2c(c1)OCCO2)C(=O)c1ccc(Cl)cc1Cl | -10.7%
16 | CC1CCCN(C(=O)CSc2nc3ncccc3[nH]2)C1 (centres unmarked) | 3.77%
17 | Cc1nn(C(=O)N(C)C)c(C)c1CN1C(=O)c2ccccc2C1=O | 13.8%
18 | COC(C(=O)Nc1ccnn1C1CCN(Cc2ccc(C)o2)CC1)c1ccccc1 (centres unmarked) | -2.65%
19 | Cc1ccc(-n2c(SCC(=O)N3CC(=O)Nc4ccccc43)nc3ccccc3c2=O)cc1 | -1.05%
20 | CCn1nc(NC(=O)C2CCCO2)c2cc3cc(C)ccc3nc21 (centres unmarked) | -4.48%
21 | CCCCNC(=O)C1C2C=CC3(CN(Cc4ccccc4Cl)C(=O)C13)O2 (centres unmarked) | 9.19%
22 | COc1ccc([N+](=O)[O-])cc1NC(=O)COC(=O)c1ccccc1C(=O)c1ccccc1 | -4.06%

Row | SMILES | hERG current change (%, negative = inhibition) at 10uM
23 | CN(C(=O)c1ccc2c(=O)n3c(nc2c1)CCCCC3)c1cccc(Cl)c1 | -16.4%
24 | CCOC(=O)c1ccccc1NC(=O)c1n[nH]c(=O)c2ccccc12 | -0.609%
25 | CN(CC(=O)Nc1cccc(F)c1)CC(=O)Nc1ccc(Cl)cc1[N+](=O)[O-] | 5.57%
26 | CCOC(=O)c1c(NC(=O)COc2cccc3c2CCN(CC)C3=O)sc2c1CCC2 | 9.27%
27 | CN(CC(=O)Nc1ccc(Cl)cc1)CC(=O)Nc1cc(Cl)ccc1C#N | -38.4%
28 | Cc1c(N=C2SCC(=O)N2c2c(C)n(C)n(-c3ccccc3)c2=O)c(=O)n(-c2ccccc2)n1C | -3.14%
29 | O=C(Nc1ncc2c(n1)CC(c1ccco1)CC2=O)c1ccc(Cl)cc1 (centres unmarked) | -21.2%
30 | CC1(O)CC(c2ccc(Cl)cc2)=NN1C(=O)c1ccc([N+](=O)[O-])cc1 (centres unmarked) | 11.5%
31 | COc1ccc(CNC(=O)C(c2ccc(C)o2)N(C(=O)c2csnn2)c2ccc(C(C)C)cc2)cc1 (centres unmarked) | -42.9%
32 | O=C(CSc1ccc(Cl)cc1)NCc1ccncc1 | -14.2%
33 | CC(OC(=O)c1ccc(NS(=O)(=O)c2ccc3[nH]c(=O)[nH]c3c2)cc1)C(=O)Nc1cccc(Cl)c1Cl (centres unmarked) | 11.1%
34 | CCOc1ccc(C(=O)O/N=C(\N)c2ccccn2)cc1 | 24.7%
35 | CC(CC(=O)OCC(=O)Nc1ccc2[nH]c(=O)[nH]c2c1)c1ccccc1 (centres unmarked) | 4.41%
36 | Cc1ccc2nc(-c3cccc(S(=O)(=O)N4CC(C)OC(C)C4)c3)cn2c1 (centres unmarked) | -11.8%
37 | CCCNC(=O)CN1C(=O)c2ccccc2Sc2ncccc21 | 9.33%
38 | Cc1n[nH]c(=O)nc1NCc1ccccc1Cl | 3.23%
39 | COc1ccc(NS(=O)(=O)c2ccc(S(=O)(=O)N3CCOCC3)cc2)cc1 | -41.8%
40 | CN(CC(=O)OCC(=O)NC(=O)c1cccn1C)S(=O)(=O)c1ccc(Cl)cc1 | 10.1%
41 | Cc1nc2sccc2c(=O)n1-c1ccccc1Cl | 5.16%
42 | CN1CCN(c2ccc([N+](=O)[O-])c(Sc3nncn3C)c2)CC1 | -9.71%
43 | CC(=O)c1c(C)[nH]c(C(=O)CSc2nnc(-c3ccc(Cl)cc3)n2CC2CCCO2)c1C (centres unmarked) | -25.9%
44 | Cl.O=C(c1ccco1)N1CCN(CCOc2ccc(F)cc2)CC1 | -47.4%

Row | SMILES | hERG current change (%, negative = inhibition) at 10uM
45 | Cc1cc(C)cc(NS(=O)(=O)Cc2ccccc2)c1 | -7.38%
46 | Cc1ccc(C(=O)N/N=C/c2ccc([N+](=O)[O-])s2)cc1 | 10.7%
47 | COCCNC(=O)CCSc1nc(-c2ccc(OC)cc2)cc(C(F)(F)F)n1 | -4.81%
48 | Cc1ccc(S(=O)(=O)/N=C(\N)Nc2nc(C)c3ccc(C)cc3n2)cc1 | -23.2%
49 | Cc1cc(C)c2nc(N(CCN(C)C)C(=O)c3ccc(S(=O)(=O)N(C)CC4CCCO4)cc3)sc2c1.Cl (centres unmarked) | -43.6%
50 | O=S(=O)(c1ccc(Cl)cc1)c1ccccn1 | -2.49%
51 | Cc1ccc(CNC(=O)C2CCC(=O)N2C2CCCCC2)cc1 (centres unmarked) | 9.79%
52 | C(=N\NC1=Nc2cccc3cccc1c23)/c1cccnc1 | -5.08%
53 | CCCc1[nH]n(-c2nc3ccccc3s2)c(=O)c1C=NCC1CCCO1 (centres unmarked) | -65.5%
54 | CCN1CCN(C(=O)Cc2ccc(C)cc2)CC1 | 15.9%
55 | CC(C)CN(C(=O)CCC(=O)OC(C)C(=O)Nc1cccc(C#N)c1)c1c(N)n(CC(C)C)c(=O)[nH]c1=O (centres unmarked) | 17.2%
56 | Cc1ccc(N=C2S/C(=C/c3cccc(OCC(=O)O)c3)C(=O)N2C)cc1C | 20.5%
57 | Cc1ccc(NC(=O)c2cc(C(=O)Nc3ccc(C)cc3)n(C)n2)cc1 | 7.29%
58 | O=C(N/N=C/c1ccc([N+](=O)[O-])o1)C1CCCC1 | 10.6%
59 | Cn1nc(C(C)(C)C)cc1C(=O)NNC(=O)c1ccc(C(F)(F)F)cc1 | 9%
60 | Cc1cc(C)c2cc(CN(CCO)C(=O)NC3CCCCC3)c(=O)[nH]c2c1 | -3.62%
61 | CCC(=NCC1CCCO1)c1c(O)n(-c2ccc(Cl)cc2)c(=O)[nH]c1=O (centres unmarked) | 4.76%
62 | CCn1c(SCC(=O)Nc2c(C)n(C)n(-c3ccccc3)c2=O)nnc1-c1cccc(C)c1 | 28.9%
63 | O=C(CNC(=O)c1[nH]cnc1C(=O)NC(c1ccccc1)c1ccccc1)OCc1ccccc1 | 13.2%
64 | CN(CC(=O)NCC(=O)Nc1ccc(F)cc1)C1CCS(=O)(=O)C1 (centres unmarked) | 13.3%
65 | CN(CCCN1CCOCC1)Cc1cn(C)nc1-c1ccccc1F | -6.99%
66 | CC(C)c1cc(C(=O)N2CCCC(N3CCN(c4ccccc4F)CC3)C2)nc(N)n1 (centres unmarked) | -21.2%

Row | SMILES | hERG current change (%, negative = inhibition) at 10uM
67 | COc1ccc(C(CNC(=O)c2ccc(NS(=O)(=O)c3cccc([N+](=O)[O-])c3)cc2)N2CCOCC2)cc1 (centres unmarked) | 15.1%
68 | O=C(Nc1nnc(SCc2ccc(Cl)cc2)s1)c1cnccn1 | -6.91%
69 | O=c1cc(-c2ccccc2)nc(/C=C/c2ccccc2)[nH]1 | 5.21%
70 | Cc1nnc(NCc2ccco2)c2ccccc12 | -17.1%
71 | COC(=O)C1=C(C(=O)OC)[C@@H]2Nc3ccccc3[C@@]23C[C@@H](C(=O)OC)N(C(=O)CC(C)C)C3=N1 | -10.7%
72 | CS(=O)(=O)NCCSc1cc(C(F)(F)F)nc2ccccc12 | -2.35%
73 | O=C(NC1CCCC1)C(c1ccco1)N(C(=O)c1ccco1)c1ccc(F)cc1 (centres unmarked) | 2.55%
74 | O=C(NCc1nnc(SCC(=O)N2CCCCCC2)o1)c1ccco1 | 13.6%
75 | CC(C)c1ccc(CNc2ccc3c(c2)ncn3C)cc1 | 9.16%
76 | CC1CCCN(C(=O)C2CCN(S(=O)(=O)c3cccc4nsnc34)CC2)C1 (centres unmarked) | -17.9%
77 | CN(CC(=O)Nc1ccccc1Br)C(=O)CCC1CCCC1 | 9.57%
78 | C/C(=N\Nc1nc(-c2cc(C)ccc2C)cs1)c1cc2c(ccc3ccccc32)oc1=O | 15.7%
79 | O=C(/C=C/c1c(F)cccc1Cl)c1ccc(F)cc1 | 15.2%
80 | CCN(CC)Cc1c(O)ccc2c(=O)c(Oc3ccccc3OC)c(C)oc12 | 17.4%
81 | CCC(C(=O)NC1CCCC1)N(C(=O)Cn1nnc(-c2ccc(C)cc2)n1)C1CCCC1 (centres unmarked) | -5.48%
82 | CC(=O)Nc1ccc(S(=O)(=O)Nc2nnc(C(C)(C)C)s2)cc1 | 11.8%
83 | O=C(NCc1cccs1)C1CCCN1C(=O)NC1CCCCC1 (centres unmarked) | 11.6%
84 | CCC(C)(C)c1ccc(Oc2cccc(C(=O)O)c2)cc1 | 11.5%
85 | Cc1ccc(C(=O)N2CCN(S(=O)(=O)c3sc(C(=O)O)c(C)c3C(=O)O)CC2)s1 | 17.8%
86 | O=S(=O)(Cc1ccccc1)NCC1CCCN(Cc2ccc3nonc3c2)C1 (centres unmarked) | -51.2%

Reference: publication PMC4336329 (PLoS ONE, 2015)
